# The other results are listed elsewhere or left out. Single values of this set are uncertain. Values with irradiation are relative to irradiated vehicle.
# Test system: A549-Dual
# Test: NF-kB reporter (SEAP) activity, viability-corrected, relative to vehicle (fold change vs vehicle); higher = more activation of STING-IRF / NF-kB immune response reporter
# Conditions: 10 µM; irradiation: 8 Gy/4 fr
# 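Note: viability correction based on the alamar blue assay, with concentrations leaving 10% survival or less dropped.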
row,SMILES,NF-kB reporter
1,O=C(NCC(O)CO)c1c(I)c(C(=O)NCC(O)CO)c(I)c(N(CCO)C(=O)CO)c1I (configuration not stated) [Ioversol],0.865
2,C[N+]1(C)CCC(OC(=O)C(O)(c2ccccc2)C2CCCC2)C1.[Br-] (configuration not stated) [Glycopyrrolate],0.87
3,CCn1c(=O)c2c(nc(/C=C/c3ccc(OC)c(OC)c3)n2C)n(CC)c1=O [Istradefylline],0.729
4,Cc1c(O)c(=O)ccn1C [Deferiprone],1.44
5,CC(=O)Nc1ccc(C(=O)O)cc1.CC(=O)Nc1ccc(C(=O)O)cc1.CC(=O)Nc1ccc(C(=O)O)cc1.CC(O)CN(C)C.CC(O)CN(C)C.CC(O)CN(C)C.O=c1[nH]cnc2c1ncn2C1OC(CO)C(O)C1O (configuration not stated) [Isoprinosine],0.812
6,CC(=O)O.CC(=O)O.CCC(C)CC(C)CCCCCCCCC(=O)NC1CC(O)C(NCCN)NC(=O)C2C(O)CCN2C(=O)C(C(O)CCN)NC(=O)C(C(O)C(O)c2ccc(O)cc2)NC(=O)C2CC(O)CN2C(=O)C(C(C)O)NC1=O (configuration not stated) [Caspofungin Acetate],1.06

# Same assay, conditions: 10 µM; irradiation: none
row,SMILES,NF-kB reporter
1,O=C(CO)C(O)C(O)C(O)CO (configuration not stated) [Fructose],0.826
2,NCC1OC(OC2C(N)CC(N)C(O)C2OC2OC(CO)C(O)C2O)C(N)C(O)C1O.O=S(=O)(O)O (configuration not stated) [Ribostamycin Sulfate],0.784
3,Cl.O=C(O)c1cn(-c2ccc(F)cc2)c2cc(N3CCNCC3)c(F)cc2c1=O [Sarafloxacin HCl],1.27
4,CC(O)C1C(=O)N2C(C(=O)[O-])=C(SC3Cn4cnc[n+]4C3)C(C)C12 (configuration not stated) [Biapenem],1.66
5,OC(Cn1cncn1)(Cn1cncn1)c1ccc(F)cc1F [Fluconazole],0.902
6,CCCC1CC(C(=O)NC(C(C)Cl)C2OC(SC)C(O)C(O)C2O)N(C)C1 (configuration not stated) [Clindamycin],0.834
7,CC(C)(O/N=C(/C(=O)NC1C(=O)N2C(C(=O)[O-])=C(C[n+]3ccccc3)CSC12)c1csc(N)n1)C(=O)O.O.O.O.O.O (configuration not stated) [Ceftazidime Pentahydrate],0.901
8,Cc1ccc(=O)n(-c2ccccc2)c1 [Pirfenidone],0.62
9,CN(C)CCCN1c2ccccc2Sc2ccccc21.Cl [Promazine hydrochloride],1.01
10,Nc1cc[nH]c(=O)n1 [Cytosine],0.888
11,COC(=O)C1CC2=CC(=O)CCC2(C)C23OC2CC2(C)C(CCC24CCC(=O)O4)C13 (configuration not stated) [Eplerenone],1.04
12,Cc1ccc2c(Cl)cc(Cl)c(O)c2n1 [Chlorquinaldol],0.551
13,NC1CONC1=O [L-Cycloserine],0.958
14,CC12CC3CC(C)(C1)CC(N)(C3)C2.Cl [Memantine HCl],0.788
15,O=c1n(CCCN2CCN(c3cccc(Cl)c3)CC2)nc2ccccn12 [Trazodone],0.894
16,CCCc1ncc(C[n+]2ccccc2C)c(N)n1.Cl.[Cl-] [Amprolium HCl],1.18
17,O=CC(O)C(O)C(OC1OC(CO)C(O)C(O)C1O)C(O)CO (configuration not stated) [Maltose],1.06
18,C=C1C2CCC(C2)C1(C)C (configuration not stated) [Camphene],0.783
19,Cl.Cl.N=C(NCCCCCCNC(=N)NC(=N)Nc1ccc(Cl)cc1)NC(=N)Nc1ccc(Cl)cc1 [Chlorhexidine?2HCl],2.62
20,COc1cc(N)c(Cl)cc1C(=O)NC1CCN(CCCOc2ccc(F)cc2)CC1OC (configuration not stated) [Cisapride],1.33
21,CCN(CC)CC(=O)Nc1c(C)cccc1C [Lidocaine],0.915
22,CC1OC(OC2C(CO)OC(OCC3OC(OC(=O)C45CCC(C)(C)CC4C4=CCC6C7(C)CCC(OC8OCC(O)C(O)C8OC8OC(C)C(O)C(O)C8O)C(C)(CO)C7CCC6(C)C4(C)CC5)C(O)C(O)C3O)C(O)C2O)C(O)C(O)C1O (configuration not stated) [Hederacoside C],0.501
23,COC(=O)Nc1nc2cc(C(=O)c3ccccc3)ccc2[nH]1 [Mebendazole],1.67
24,CN1CCC(=C2c3ccccc3CC(=O)c3sccc32)CC1.O=C(O)/C=C/C(=O)O [Ketotifen Fumarate],0.753
25,CCOC(=O)C(CCc1ccccc1)NC(C)C(=O)N1C(C(=O)O)CC2CCCC21 (configuration not stated) [Ramipril],1.06
26,CS(=O)(=O)Nc1ccc([N+](=O)[O-])cc1Oc1ccccc1 [Nimesulide],0.759

# From the supplement of paper PMC9174493
